Over roughly 33,000 sequences, “E-score (-0.5 to 0.5)” has its median near -0.016; the highest 2% begin near 0.32. The list shows a part of the results.
molecular target: T1, Stp1 (UniProt B3LFK1); test: PBM E-score (8-mer binding enrichment) (E-score (-0.5 to 0.5)); higher = stronger / more preferred TF binding; most listed sequences are background and not binding sites; settings: protein concentration: 200 nM; construct: GST-full length
T1 sequence: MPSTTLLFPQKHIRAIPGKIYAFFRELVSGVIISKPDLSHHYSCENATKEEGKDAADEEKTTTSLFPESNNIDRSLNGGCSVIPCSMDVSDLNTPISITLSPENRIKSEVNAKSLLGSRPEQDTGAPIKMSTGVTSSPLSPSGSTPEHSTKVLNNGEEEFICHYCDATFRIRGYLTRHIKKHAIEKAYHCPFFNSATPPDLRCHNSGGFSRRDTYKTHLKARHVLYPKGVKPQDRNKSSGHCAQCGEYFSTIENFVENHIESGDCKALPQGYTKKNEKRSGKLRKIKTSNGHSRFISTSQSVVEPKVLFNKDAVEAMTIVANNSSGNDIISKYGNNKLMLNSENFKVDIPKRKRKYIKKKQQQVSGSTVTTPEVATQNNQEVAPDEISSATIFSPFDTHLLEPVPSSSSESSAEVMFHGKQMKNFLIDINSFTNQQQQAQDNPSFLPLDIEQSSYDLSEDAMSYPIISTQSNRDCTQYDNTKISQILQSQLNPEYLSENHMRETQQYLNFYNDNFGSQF
How it was run: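 Yeast transcription factors, full-length or as DNA-binding domains, were expressed with a GST tag using PURExpress in vitro transcription/translation. At about 100-200 nM they were applied to universal all-10-mer Agilent arrays, double-stranded by primer extension on fresh or once-stripped slides. Fluorescent anti-GST detected bound protein, and masliner normalised the scans. E-scores for ungapped eight-base words, pooled with reverse complements, came from the Universal PBM Analysis Suite.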

Sequence | PBM E-score
CCGCGGTC | -0.0134
CATATTTA | 0.199
GCCCTAGC | 0.00456
ACGGTAAA | 0.0838
ACTCCAAG | -0.0634
TAAAGTGA | 0.135
ACAATGCG | -0.0211
ACAGTGTA | 0.0314
ACCCTTGA | -0.193
GAGTTGCC | 0.235
AGAGCGAC | -0.213
AGATGACG | -0.0798
AAAAACGC | 0.125
AAGACGTC | -0.109
CCTATGAG | -0.0357
CCCTCGAG | -0.161
CATCTCGC | 0.0407
AGCTAGTC | -0.269
AACTGTCA | -0.0285
ACCTGCAG | -0.357
AGTTGCGA | 0.0797
ATCTAACG | 0.107
AGAAGCAC | -0.164
AATCTAGA | -0.112
CGGACCGC | -0.025

Sequence | PBM E-score
GGTGCTCA | -0.173
AGATCAGA | -0.103
CGTTCTCC | -0.116
ACCTAAGC | -0.0624
CGGATACC | 0.0583
TGCCACCA | -0.137
ACTGATAG | -0.0401
ACGTTAAG | 0.0506
AGTAGGAC | -0.113
AGCCCTTC | -0.0562
TTACGTAA | 0.00287
CAGCTGCA | 0.114
CAAGTCTC | -0.32
GCTGCGCC | 0.152
CAACTAAG | -0.0282
GAACCAAA | -0.147
AGCATAAA | 0.0182
ACCGAAAT | 0.0238
AGCCACCC | -0.188
AAAGGTAT | 0.0191
AGCAGTCG | -0.237
ACGTCCAC | -0.0391
AGAACGAA | 0.148
AGCCGTAC | 0.432
CGAGCATC | -0.166

Sequence | PBM E-score
TGAAGACA | 0.0418
GATAAGAA | 0.216
CCCGGCCA | -0.341
CGCGCCGA | 0.362
AGCCGACT | -0.122
ACAAACAG | 0.0617
TCTGGGCA | -0.189
AGGCCACG | 0.0478
TAGCGCGA | 0.16
CGATTGAA | -0.0712
CTACATGA | -0.196
CTGTTTGC | 0.0866
CGATAGTA | -0.0416
ACGGGAAC | -0.0529
CTAGGCGA | 0.0424
GACTTTAC | 0.0152
ATTGTTCA | 0.105
AGAAGGAA | -0.0319
AGATAGCA | -0.0406
AGCGTTAA | 0.0253
ACGTGTTA | 0.116
CCTGCTGC | -0.076
ACTAAGCA | 0.00802
AGGTTTCA | 0.00551
GAAGTGTC | -0.0596

Sequence | PBM E-score
ACTGAGTG | -0.00286
ACCCGCGT | 0.11
GGGGCAGA | -0.0961
CATATACC | -0.135
GTTTCGCA | -0.0969
TACTATCA | 0.0875
ACGCACCA | 0.189
ATCAGAGA | -0.175
CATTCTAA | 0.0982
AATCACTC | 0.0783
AAAACAGA | 0.0828
CGCTCGCA | 0.117
CTTGATAA | 0.107
GTCAGCAC | -0.117
ACTCTGTC | -0.134
ATACTTTC | -0.0221
GCCACGAA | 0.0264
CCCTCTCA | -0.314
ACTCGAAG | 0.0164
CCCCAAAC | -0.158
CCCGAGTA | 0.0279
TAATCCAA | 0.0564
CCGCACTA | 0.162
CTTCCTAA | -0.0988
CCGAACCC | -0.279

Sequence | PBM E-score
CGTGGGAG | -0.0189
ACCCCCAT | -0.277
ATATGTCC | -0.00048
CCAATGAG | -0.166
AGCTGTCG | -0.209
ACAAGTTC | -0.0226
GTCGACAA | -0.192
TATACAAA | 0.192
GGGCGTGA | -0.0128
CCGAAGAG | -0.0038
GCCGCTTA | 0.39
AACGGACC | -0.0968
ACCGAGAG | -0.176
GGAACTAA | 0.0415
AGCCAGAT | 0.00579
ATCACAGA | 0.0244
AGGCAAAA | 0.344
AATTACGC | -0.0818
CTGACGGC | 0.0432
CGGGTTCA | 0.0646
CATATAAC | 0.138
ACCCCACT | -0.243
CACTTCCA | 0.0126
AGCGCCTC | 0.389
AGTCCACA | -0.0519

Sequence | PBM E-score
ACAGTATG | -0.0585
ACTCCGGG | -0.146
CCCTTCGC | -0.0851
TCTAGCCA | -0.00776
AACAGTCG | -0.0033
AAAGCAAC | 0.0791
GGGGATAA | -0.313
CAGATGTA | -0.0377
AACATTAT | 0.0409
AAGCACAG | 0.15
GGTCTTCA | -0.153
CAAGCCGA | 0.0955
AAATGTAT | 0.14
GCAGCCGA | 0.0964
GAGTGCCA | -0.0699
ATAGAGAT | 0.0979
ATCATATC | 0.127
GACAATGA | -0.247
AACACCCA | -0.259
ACATTGCG | 0.176
ATTCGTGA | 0.0249
GCGCTGTA | 0.0568
GCACGAAA | 0.326
CGCTACTA | 0.0915
GCCAAGTA | -0.156

Sequence | PBM E-score
TGCTGACA | 0.02
CGCAAAAA | 0.223
CAAGAATC | 0.0699
AACAACCG | 0.104
AAATATAT | 0.218
CAGGACAC | -0.141
TATAATCA | 0.225
ATCAACGA | 0.0653
GTAGAAAA | 0.189
TGATCTAA | -0.174
AGGAGGCA | 0.109
CGGATGTA | 0.0738
AGGCTTCC | 0.0665
CCCGTGAA | -0.0993
GAATCGCC | 0.29
TTGGTAAA | 0.203
ACAGACGG | 0.061
AAATGGCC | 0.0218
GCTGTGGA | -0.0422
ATGAGGCC | 0.0892
ACTTACGG | 0.0811
CTTGACTC | -0.246
GGTCTGAA | -0.0714
AGCCGATA | -0.15
CCATAGAA | 0.155

Sequence | PBM E-score
CAAATTCC | 0.0321
CACGGTTA | 0.241
ACGGCGGA | 0.314
AGCACGTC | -0.0395
AGTACCAA | 0.0998
CCGGGCCC | -0.109
TGCGTTAA | 0.104
CAAAGGGA | -0.111
ATACACAC | 0.0549
GAACAAAC | 0.196
AGTCGTGG | -0.227
GTATCACA | 0.19
TTACAGAA | -0.0909
GGAATCGA | -0.192
AACATCAC | -0.0907
CTTGGCTC | -0.0825
AGCGGAGG | -0.0516
AAAGCTCT | -0.371
AACCTATC | -0.109
CTTACATA | 0.2
CAATCGTC | 0.063
CCGTCACA | -0.202
TACTTTCA | 0.00121
ACGAAGGG | -0.0354
GGCGTTAC | 0.265

Sequence | PBM E-score
ACCTTAGG | -0.179
ACGTAGGC | -0.149
AGATACCG | 0.123
AATCTACA | 0.156
AGTGACAC | 0.141
CCCTACTC | 0.0313
GAATCACA | -0.0331
AGCTTGAC | -0.16
CCCCCTTA | -0.35
GGGCCACA | 0.0202
ATTCGCGC | 0.221
CCGTCGTC | -0.0542
CCGTATCG | 0.215
CCGCGCAG | 0.221
CAGACGAG | -0.072
CGCTTAAC | 0.12
CAAGTACG | -0.0705
ATCCTGCA | -0.159
AGTCCTCA | -0.0239
